# Experimental data taken from PubChem BioAssay AID2451 (National Center for Advancing Translational Sciences (NCATS), 2010).
# “And” between values parts separate entries of the source, which are not always exact repeats. Identical values can stand only once. The whole screen tested about 290,000 compounds, of which about 2,100 (0.72%) were called active. Inconclusive results, whose numbers are uncertain, are shown with a selection of clear calls. Calls follow the shape of the dose curve; as a rule, active = well fitted inhibition curve with a large enough effect; inconclusive = small, poorly fitted or top-dose-only effect, or effect the other way; inactive = flat fitted curve, though single readings scatter. A potency beside an inconclusive call is a rough fit, not a confirmed value.
# Target: Fructose-bisphosphate aldolase (Giardia intestinalis (strain ATCC 50803 / WB clone C6)) (UniProt A8B2U2)
# Chain of UniProt A8B2U2 (A8B2U2 whole entry, looked up): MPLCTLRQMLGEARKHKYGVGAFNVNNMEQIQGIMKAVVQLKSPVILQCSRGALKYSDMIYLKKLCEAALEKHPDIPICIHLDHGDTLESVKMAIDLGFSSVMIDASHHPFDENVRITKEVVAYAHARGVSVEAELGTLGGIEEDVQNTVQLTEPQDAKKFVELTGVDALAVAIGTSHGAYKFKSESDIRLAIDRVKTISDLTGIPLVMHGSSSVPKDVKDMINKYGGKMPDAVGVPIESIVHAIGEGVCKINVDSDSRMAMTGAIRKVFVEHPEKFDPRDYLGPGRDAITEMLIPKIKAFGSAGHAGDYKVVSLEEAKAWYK
# Assay: qHTS Assay for Inhibitors of Fructose-1,6-bisphosphate Aldolase from Giardia Lamblia; also: nearly all actives have a fitted effect of over 55% in size
# Details: purified Giardia FBPA; activity, negative = inhibition: at 59.6 µM (top of the series) unless noted
# Description: Assay Provider: Osnat Herzberg, University of Maryland
# The objective of this project is to obtain compounds that inhibit Giardia lamblia growth. G. lamblia is a human pathogen which afflicts impoverished nations; it is the most common cause of outbreaks of diarrhea in the United States. During the course of our study of potential drug targets in Giardia, we have identified the Class II (Zn2+ functions in electrophilic catalysis) fructose-1,6-bisphosphate aldolase (FBPA) as an excellent candidate for drug targeting. FBPA is a key glycolytic pathway enzyme, essential for G. lamblia survival. The human FBPA belongs to the Class I aldolases, which have a different substrate binding site structure and a radically different catalytic mechanism (employing a lysine-Schiff base intermediate). Therefore, affinity-based or mechanism-based inhibitors of the Giardia FBPA are expected not to interfere with the catalytic function of the human FBPA.
# A glyceraldehyde-3-phosphate dehydrogenase/triose phosphate isomerase/NAD/arsenate coupled assay was adapted to the 1536-well HTP format for use in the primary screen. This was done by coupling it to a diaphorase/resazurin/resorufin reaction that can be monitored by fluorescence (excitation, 544 nm; emission, 590 nm). Compounds identified in this screen will be further evaluated by coupling the glycerol-3-phosphate/triose phosphate isomerase/NADH assay to a phenazine methosulfate/tetranitroblue tetrazolium color reaction. False positives due to the dehydrogenases and diaphorase inhibition will be eliminated, and selectivity assay will triage inhibitors of mammalian triose phosphate isomerase and the Class I FBPA. G. lamblia FBPA inhibitors identified by the in vitro analyses will be examined for growth inhibition of Giardia trophozoites, and for cytotoxicity in human cells.
# Step,Parameter,Value,Description
# 1,Enzyme reagent,2 uL,40 nM FBPA
# 2,Compound,23 nL,3.68 nM-57.5 uM final concentration
# 3,Time,10 min,RT Incubation
# 4,Substrate/detection Reagent,2 uL,Substrate + enzyme coupling system + AmpLite Red kit
# 5,Time,20 min,RT Incubation
# 6,Detector,525 nm/598 nm (Fluorescence),ViewLux Fluorescence Read (Read 1)
# 1,Medium-binding black solid-bottom Kalypsys plates. FRD or Kalypsys dispenser, 2 uL of FBPA enzyme. Bottle kept at 4C.
# 2,Compound Library (10 mM ,1:5 dilution). Pin-transferred for a [final] range of 3.68 nM-57.5 uM.
# 4,FRD or Kalypsys dispenser, 2 uL of reaction mixture. Bottle kept at 4C and covered in foil to protect from light.
# 6,ViewLux Protocol 1194; Excitation filter wheel A (525/20 Pol; BODIPY TMR FP), Emission filter wheel B (598/25 S; BODIPY TMR FP S).
# Keywords: Fructose-bisphosphate aldolase, FBPA , Giardia lamblia , Giardia, HTS, Inhibitors
# % is scaled to controls: 0 for no effect and ±100 for the full control effect; potency is read from the fitted curve at half-maximal effect; tags tell the direction and shape of the fitted curve.
SMILES,Potency,"activity, negative = inhibition"
c1ccc(SCCOCCN2CCOCC2)cc1,"inconclusive: 39.8 µM [inhibitor, single point]",–
CC(C)(C)CN1CCNC(=O)C1CC(=O)N1CCN(c2ccccc2)CC1 (stereo not given),"inconclusive: 19.9 µM [inhibitor, partial curve]",–
CCc1ccc(S(=O)(=O)/N=C2\C=C(NS(=O)(=O)c3ccccc3)C(=O)c3ccccc32)cc1,"inconclusive: 12.6 µM [inhibitor, partial curve]",–
N#CC1=C(N)Oc2n[nH]c(-c3cccs3)c2C1c1ccoc1 (stereo not given),"inconclusive: 14.1 µM [inhibitor, partial curve]",–
Cc1c(C(=O)N2CCCC2)oc2c1-c1[nH]ncc1CC2,"inconclusive: 15.8 µM [inhibitor, partial curve]",–
CCN(CC)CCOc1c(C)cccc1Cl,"inconclusive: 19.9 µM [inhibitor, partial curve]",–
COc1cc2c(cc1OC)C(C)N(Cc1ccc3c(c1)OCO3)CC2 (stereo not given),"inconclusive: 15.8 µM [inhibitor, partial curve]",–
Cc1c(CCC(=O)O)c(=O)n2c([nH]c3ccccc32)c1C#N,"inconclusive: 15.8 µM [inhibitor, single point]",–
Cn1ccc(CC(=O)N2CCC(N3CCC(C(=O)N4CCCC4)CC3)CC2)c1,–,inactive: -11.2%
CCN(CC)c1ccc(C(=C2C=CC(=[N+](CC)CC)C=C2)c2ccccc2)cc1,active: 17.7 µM,–
COc1ccccc1-n1c(-c2ccco2)n[nH]c1=S,active: 14.1 µM,–
COc1ccc(-c2cc(C(=O)N3CCCCC3)no2)cc1OC,–,inactive: 9.14%
CCOc1ccc2[nH]c(=O)c(C(c3nnnn3CC3CCCO3)N3CCc4ccccc4C3)cc2c1 (stereo not given),"inconclusive: 6.29 µM [inhibitor, full curve]",–
S=c1[nH]nc(-c2cccnc2)n1/N=C/C=C/c1ccco1,"inconclusive: 19.9 µM [inhibitor, partial curve]",–
Cc1ccc(-c2nc3ncccc3o2)cc1N,–,inactive: -3.04%
C[C@H](NC(=O)c1nc[nH]c1C(=O)NC1CCN(C(=O)OC(C)(C)C)CC1)C(=O)OC(C)(C)C,"inconclusive: 15.8 µM [inhibitor, partial curve]",–
O=C(NC(=S)Nc1ccc2oc(=O)ccc2c1)c1cccc(Cl)c1,active: 10 µM,–
COc1ccc2cc3c(N)nn(C(=O)Cc4ccccc4OC)c3nc2c1,–,inactive: 6.96%
CS(=O)(=O)c1ccc2nc(NC(=O)CN3CCCCCC3)sc2c1,"inconclusive: 15.8 µM [inhibitor, partial curve]",–
COc1ccccc1Cn1c(=S)[nH]c2cc(C(=O)N3CCC(C(N)=O)CC3)ccc2c1=O,"inconclusive: 15.8 µM [inhibitor, partial curve]",–
O=C(O)/C=C/c1ccc(O)c(O)c1,"inconclusive: 7.06 µM [inhibitor, partial curve] and inconclusive: 35.4 µM [inhibitor, single point]",–
O=C(CN1CCOCC1)Nc1ccc(OC(F)(F)F)cc1,"inconclusive: 28.2 µM [inhibitor, single point]",–
C=CCc1cc(Cl)ccc1OCCOCCNC(C)(C)C,"inconclusive: 17.7 µM [inhibitor, partial curve]",–

SMILES,Potency,"activity, negative = inhibition"
O=C(CN1CCN(c2ccccc2Cl)CC1)NC1CCCc2ccccc21 (stereo not given),"inconclusive: 25.1 µM [inhibitor, single point]",–
O=C(O)c1[nH]c2ccccc2c1C(c1c(F)cccc1Cl)c1c(C(=O)O)[nH]c2ccccc12,–,inconclusive: 52.6% [activator]
O=C(O)CCC(=O)N1N=C(c2ccccc2)CC1c1ccc2c(c1)OCO2 (stereo not given),–,inactive: 11.9%
O=[N+]([O-])c1ccc(N2CCN(CCOCCO)CC2)c([N+](=O)[O-])c1,"inconclusive: 19.9 µM [inhibitor, partial curve]",–
O=C(NCCCn1ccnc1)c1nn2c(C(F)(F)F)cc(-c3ccccc3)nc2c1Cl,–,inactive: 7%
CCCCOc1ccc(CN2CCC(O)CC2)cc1,"inconclusive: 22.3 µM [inhibitor, partial curve]",–
Cc1onc(-c2c(Cl)cccc2Cl)c1C(=O)N=C(N)N1CCCC1,"inconclusive: 22.3 µM [inhibitor, single point]",–
CCc1ccc(Nc2ncc3c(n2)CC(C)(C)CC3=O)cc1,–,inactive: 12%
COc1ccc(CN(CCc2ccccc2)Cc2ccccc2)cc1OC,"inconclusive: 25.1 µM [inhibitor, single point]",–
COCCCn1c(=O)c2sccc2n2c(CCCC(=O)N(C)Cc3ccco3)nnc12,–,inactive: 15.4%
CCOCCCNC(=O)c1cc(Nc2ccc(OC)cc2OC)nc2ccccc12,–,inactive: -3.53%
CN(C)CCN(C(=O)c1ccc2c(c1)CCCC2)c1nc2c(F)cccc2s1,"inconclusive: 22.4 µM [inhibitor, partial curve]",–
CCCCn1c(NC(C)=O)c(C#N)c2nc3ccccc3nc21,"inconclusive: 6.29 µM [inhibitor, full curve]",–
Cc1ccc(OCCCC(=O)Nc2ccc(S(=O)(=O)Nc3cc(C)nc(C)n3)cc2)cc1,"inconclusive: 31.6 µM [inhibitor, single point]",–
CC/C(CC(c1ccccc1)c1c(O)c2ccccc2oc1=O)=N\NC(N)=S (stereo not given),"inconclusive: 15.8 µM [inhibitor, partial curve]",–
O=C(O)c1ccc2c(c1)C(=O)N(Cc1ccc3c(c1)OCO3)C2=O,"inconclusive: 14.1 µM [activator, partial curve]",–
Cc1ccc(SCCC(=O)N/N=C/c2cccnc2)cc1,"inconclusive: 15.8 µM [inhibitor, partial curve]",–
Cc1c(C(=O)Nc2ccncc2)oc2ccccc12,–,inactive: -5.41%
CCOC(=O)Nc1ccc2c(c1)N(C(=O)CN1CCN(C)CC1)c1ccccc1CC2,"inconclusive: 25.1 µM [inhibitor, partial curve]",–
Cc1ccc(OCC(=O)Nc2sc3c(c2C#N)CC(C)(C)NC3(C)C)cc1,–,inactive: 0.882%
COc1ccc(CNCc2ccc([N+](=O)[O-])cc2)cc1OC,"inconclusive: 31.6 µM [inhibitor, single point]",–
CCOC(=O)N1CCN(C(=S)NC(=O)c2ccnn2C)CC1,"inconclusive: 3.97 µM [inhibitor, full curve]",–
